# Laboratory results: PubChem BioAssay AID651820 (National Center for Advancing Translational Sciences (NCATS), 2012)
# Screen size: about 340,000 compounds; about 12,000 (3.5%) were called active. The shares of active, inactive and inconclusive entries below differ from those in the screen. The call rests on the fitted dose curve; in most records, active means well fitted inhibition curve with a large enough effect; inconclusive means small, poorly fitted or top-dose-only effect, or another doubt; inactive means no such curve, though single readings can be large or run the other way. No potency is given beside an inconclusive call; the fits are too rough.
# Test: qHTS Assay for Inhibitors of Hepatitis C Virus (HCV)
# Conditions: Huh7.5.1 HCVcc-Cre (HCVcc is cell-culture hepatitis C virus) infection, luciferase reporter, 44 h; activity change, negative = inhibition: at 41.8 µM (top of the series) unless noted
# In short: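 Compounds are dispensed onto cells plated 4 h earlier at 1,000 per well, with HCVcc-Cre virus (about 0.5 moi) added next. Following 44 h of culture, luminescent signal is measured for 15 sec after 15 min with substrate at room temperature.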
# On the % scale 0 is the no-effect control and ±100 the full control effect; potency means the concentration at half of the fitted maximal effect; tags describe the fitted curve by direction and shape.
SMILES,Potency,"activity change, negative = inhibition"
COc1cc(O)c2c(=O)c3c(O)ccc(O)c3oc2c1,"inconclusive [inhibitor, single point]",
CN(CC(=O)Nc1cccc(F)c1)CC(=O)Nc1cccc(S(=O)(=O)N2CCCCC2)c1,"inconclusive [inhibitor, partial curve, poor fit]",
N#C/C(=C/c1ccc(Cl)cc1)NC(=O)c1ccccc1,"inconclusive [inhibitor, partial curve]",
COc1ccc(C2=Nn3c(nnc3-c3ccc(OC)cc3)SC2)cc1,active: 3.55 µM,
CC(Oc1ccc2c3c(c(=O)oc2c1)CCCC3)C(=O)NCc1ccncc1 (centres undefined),,inactive: -12.7%
CS(=O)(=O)c1ccc(CNC(=O)[C@]2(C(F)(F)F)C[C@H](CCc3ccccc3)CCCO2)cc1,"inconclusive [inhibitor, single point]",
CC(=O)n1cc([C@@H]2C=C(C(=O)NCc3ccccc3)O[C@H](OCc3ccc(CO)cc3)C2)c2ccccc21,"inconclusive [inhibitor, partial curve, poor fit]",
C=CC[C@@H](CC(=O)N[C@H](CO)Cc1ccccc1)C(=O)N[C@H](C)COC(=O)[C@@H](CC=C)CC(=O)OC(C)(C)C,,inactive: 0.895%
O=C(NCCNC(=O)c1ccc(Br)o1)c1cccnc1,,inactive: 4.32%
N#CCCN(C(=O)COC(=O)C1CCN(S(=O)(=O)c2ccccc2C(F)(F)F)CC1)c1ccccc1,,inactive: 1.77%
Cn1cc(C(=O)C(=O)N2CCCc3ccccc32)c2ccccc21,"inconclusive [inhibitor, single point]",
O=C(c1ccc(Cl)cc1)c1ccc(OCC(O)CN2CCCCC2)cc1 (centres undefined),active: 14.1 µM,
CN(C)CCC(C(=O)c1ccccc1)c1ccccn1 (centres undefined),,inactive: -8.83%
Clc1ccc(CSc2cc3c(nn2)-c2ccccc2CC3)cc1Cl,,inactive: -4.86%
O=C(O)c1ccc(COc2ccc(Cl)cc2)o1,,inactive: 9.56%
CN(C)S(=O)(=O)c1ccc(C(=O)Nc2ccccc2F)cc1,,inactive: 10.7%
CC(C)(C)NCC(O)(c1ccc(Cl)cc1)c1ccc(Cl)cc1,"inconclusive [inhibitor, partial curve]",
CN(C(=O)c1cccc(NC(=O)Cc2ccc(NC(=O)C3CCCN(C(=O)C4CCCC4)C3)cc2)c1)C1CCCCC1 (centres undefined),"inconclusive [inhibitor, partial curve]",
O=[N+]([O-])c1ccc(C=Nc2ccc(Cl)cc2Cl)s1,"inconclusive [inhibitor, single point]",
O=C(CC(CC(=O)c1ccccc1)c1ccncc1)c1ccccc1,"inconclusive [inhibitor, single point]",
CCc1cc2c(-c3ccccc3)cc(=O)oc2cc1OC(C)C(C)=O (centres undefined),"inconclusive [inhibitor, single point]",
Cc1ccc(NS(=O)(=O)c2ccc(C(=O)NC3CCN(Cc4ccccc4)CC3)cc2)cc1,"inconclusive [inhibitor, partial curve, poor fit]",

SMILES,Potency,"activity change, negative = inhibition"
Cc1[nH]c(C(=O)O)c(C)c1C(=O)OC(C)C,,inactive: 13.9%
Clc1ccc(Cl)c(-c2nn3c(COc4ccccc4)nnc3s2)c1,"inconclusive [inhibitor, full curve, poor fit]",
O=C(COc1ccc(Cl)cc1)NCc1nnc(SCC(=O)Nc2ccccc2F)o1,,inactive: 4.79%
O=C(Nc1ccc(NC(=O)c2cc3ccccc3o2)cc1)c1ccc2c(c1)OCCO2,"inconclusive [inhibitor, partial curve]",
CCCNC(=O)C1(CC2CC(c3ccccc3)=NO2)CCN(C(=O)Cc2ccc(F)cc2)CC1 (centres undefined),,inactive: 3.97%
Cc1ccc(-n2nc3c(=O)n(C(C)C(=O)NCc4ccc(Cl)cc4)nc(C)c3c2C)cc1 (centres undefined),active: 22.4 µM,
Cc1ccccc1-n1ncc2c(SCC(=O)NCc3cccs3)ncnc21,active: 22.4 µM,
CCOc1cc(/C=N/NC(=O)c2cccs2)ccc1OC(=O)N1CCOCC1,"inconclusive [inhibitor, single point]",
Cc1ccccc1Nc1nc(N)nc(COC(=O)C2CCCCC2)n1,"inconclusive [inhibitor, single point]",
c1ccc2sc(N3CCCN(Cc4nc(-c5cnccn5)no4)CC3)nc2c1,"inconclusive [inhibitor, partial curve]",
CC1(C)C/C(=N\O)c2cc3c(nc2C1)CCCC3,,inactive: -24.1%
COC(=O)CSc1nc(C)cc(N2CCOCC2)n1,,inactive: 10.9%
c1ccc2c(Nc3ccc4c(c3)OCCO4)c3c(nc2c1)CCC3,"inconclusive [inhibitor, single point]",
Cc1ccc(-c2nnc(SCC(=O)Nc3ccc4c(c3)oc3ccccc34)n2C)c(Cl)c1,"inconclusive [inhibitor, partial curve]",
COc1ccccc1N1CCN(S(=O)(=O)c2ccc3c(c2)NC(=O)C(C)S3)CC1 (centres undefined),"inconclusive [inhibitor, single point]",
CC(=O)Nc1ccccc1C(F)(F)F,,inactive: 0.267%
COc1ccccc1NC(=O)CN(c1ccc(C23CC4CC(CC(C4)C2)C3)cc1)S(C)(=O)=O,"inconclusive [inhibitor, partial curve]",
Cc1nc2c(-c3ccc(F)cc3)c(C)nn2c(C)c1CCC(=O)Nc1ccc(F)cc1F,"inconclusive [inhibitor, full curve]",
CCC(=O)N1CCN(c2ccc(Cl)cc2NC(=O)c2ccc(N3CCCC3)c([N+](=O)[O-])c2)CC1,"inconclusive [inhibitor, full curve]",
O=[N+]([O-])c1ccc(-c2nc(Nc3ccc(O)cc3)c3ccccc3n2)cc1,"inconclusive [inhibitor, single point]",
COC(=O)c1ccccc1NC(=O)C(C)c1ccc([N+](=O)[O-])cc1 (centres undefined),"inconclusive [inhibitor, partial curve]",
O=C(Cc1coc2ccc3ccccc3c12)NC1CCCc2ccccc21 (centres undefined),"inconclusive [inhibitor, single point]",
